At least one read-out could not be matched to a standard name with certainty.
System: CXCL1 mRNA
Experiment: CXCL1 mRNA level by qPCR
Format: cell-based
Settings: 2.5 μM compound for 48 h

SMILES	D. CXCL1 mRNA inhibition ARPE-19 cells
COc1cccc(Cn2nc(Nc3ccccc3)nc2N)c1 [MCK261, 1-(3-methoxybenzyl)-N^3-phenyl-1H-1,2,4-triazole-3,5-diamine]	0 (A score of 0 means that the compound inhibited CXCL1 mRNA by less than 50% (non-significant inhibition))
Nc1nc(Nc2ccccn2)nn1Cc1c(F)cccc1F [MCK259, 1-(2,6-difluorobenzyl)-N^3-(pyridin-2-yl)-1H-1,2,4-triazole-3,5-diamine]	1 (A score of 1 means that the compound inhibited CXCL1 mRNA by at least 50% (significant inhibition))
Nc1nc(Nc2ccccn2)nn1Cc1ccccc1[N+](=O)[O-] [MCK289, 1-(2-nitrobenzyl)-N^3-(pyridin-2-yl)-1H-1,2,4-triazole-3,5-diamine]	0 (A score of 0 means that the compound inhibited CXCL1 mRNA by less than 50% (non-significant inhibition))
Nc1nc(Nc2ccccc2)nn1Cc1ccccc1 [MCK249, 1-benzyl-N^3-phenyl-1H-1,2,4-triazole-3,5-diamine]	0 (A score of 0 means that the compound inhibited CXCL1 mRNA by less than 50% (non-significant inhibition))
COc1cc(Cn2nc(Nc3ccccc3)nc2N)cc(OC)c1OC [MCK298, N^3-phenyl-1-(3,4,5-trimethoxybenzyl)-1H-1,2,4-triazole-3,5-diamine]	1 (A score of 1 means that the compound inhibited CXCL1 mRNA by at least 50% (significant inhibition))
Nc1nc(Nc2ccccc2)nn1Cc1cccc([N+](=O)[O-])c1 [MCK275]	0 (A score of 0 means that the compound inhibited CXCL1 mRNA by less than 50% (non-significant inhibition))
Nc1nc(Nc2ccc(Cl)cc2)n(Cc2cccc(Br)c2)n1 [MCK343, 1-(3-bromobenzyl)-N^5-(4-chlorophenyl)-1H-1,2,4-triazole-3,5-diamine]	1 (A score of 1 means that the compound inhibited CXCL1 mRNA by at least 50% (significant inhibition))
Nc1nc(Nc2ccccn2)nn1Cc1cc(F)cc(F)c1 [MCK283, 1-(3,5-difluorobenzyl)-N^3-(pyridin-2-yl)-1H-1,2,4-triazole-3,5-diamine]	1 (A score of 1 means that the compound inhibited CXCL1 mRNA by at least 50% (significant inhibition))
Nc1nc(Nc2ccccn2)nn1Cc1cccc([N+](=O)[O-])c1 [MCK292, 1-(3-nitrobenzyl)-N^3-(pyridin-2-yl)-1H-1,2,4-triazole-3,5-diamine]	0 (A score of 0 means that the compound inhibited CXCL1 mRNA by less than 50% (non-significant inhibition))
COc1cccc(Cn2nc(N)nc2Nc2ccccc2)c1 [MCK260, 1-(3-methoxybenzyl)-N^5-phenyl-1H-1,2,4-triazole-3,5-diamine]	0 (A score of 0 means that the compound inhibited CXCL1 mRNA by less than 50% (non-significant inhibition))
Cc1ccc(Nc2nc(N)n(Cc3cccc(Br)c3)n2)cc1 [MCK342, 1-(3-bromobenzyl)-N^3-(4-methylphenyl)-1H-1,2,4-triazole-3,5-diamine]	1 (A score of 1 means that the compound inhibited CXCL1 mRNA by at least 50% (significant inhibition))
Nc1nc(Nc2cccnc2)nn1Cc1cccc(Br)c1 [MCK351, 1-(3-bromobenzyl)-N^3-(pyridin-3-yl)-1H-1,2,4-triazole-3,5-diamine]	1 (A score of 1 means that the compound inhibited CXCL1 mRNA by at least 50% (significant inhibition))
Nc1nc(Nc2ccccc2)nn1CCc1ccccc1 [MCK301, 1-phenethyl-N^3-phenyl-1H-1,2,4-triazole-3,5-diamine]	1 (A score of 1 means that the compound inhibited CXCL1 mRNA by at least 50% (significant inhibition))
Nc1nc(Nc2ccccc2)n(Cc2cccc(C(F)(F)F)c2)n1 [MCK338, N^5-phenyl-1-(3-(trifluoromethyl)benzyl)-1H-1,2,4-triazole-3,5-diamine]	1 (A score of 1 means that the compound inhibited CXCL1 mRNA by at least 50% (significant inhibition))
Nc1nc(Nc2ccccn2)nn1Cc1c(Cl)cccc1Cl [MCK278, 1-(2,6-dichlorobenzyl)-N^3-(pyridin-2-yl)-1H-1,2,4-triazole-3,5-diamine]	0 (A score of 0 means that the compound inhibited CXCL1 mRNA by less than 50% (non-significant inhibition))
COc1ccc(Nc2nc(N)n(Cc3cccc(Br)c3)n2)cc1 [MCK340, 1-(3-bromobenzyl)-N^3-(4-methoxyphenyl)-1H-1,2,4-triazole-3,5-diamine]	1 (A score of 1 means that the compound inhibited CXCL1 mRNA by at least 50% (significant inhibition))
CC(C)c1ccc(Cn2nc(Nc3ccccc3)nc2N)cc1 [MCK263, 1-(4-isopropylbenzyl)-N^3-phenyl-1H-1,2,4-triazole-3,5-diamine]	1 (A score of 1 means that the compound inhibited CXCL1 mRNA by at least 50% (significant inhibition))
Nc1nc(Nc2ccccn2)nn1Cc1cccc(Br)c1 [MCK276, 1-(3-bromobenzyl)-N^3-(pyridin-2-yl)-1H-1,2,4-triazole-3,5-diamine]	0 (A score of 0 means that the compound inhibited CXCL1 mRNA by less than 50% (non-significant inhibition))
Nc1nc(Nc2cccnc2)nn1Cc1ccccc1 [MCK254, 1-benzyl-N^3-(pyridin-3-yl)-1H-1,2,4-triazole-3,5-diamine]	1 (A score of 1 means that the compound inhibited CXCL1 mRNA by at least 50% (significant inhibition))
Nc1nc(Nc2ccccc2)nn1Cc1ccc([N+](=O)[O-])cc1 [MCK288]	0 (A score of 0 means that the compound inhibited CXCL1 mRNA by less than 50% (non-significant inhibition))
Nc1nc(Nc2ccccn2)nn1Cc1ccc(F)cc1F [MCK284, 1-(2,4-difluorobenzyl)-N^3-(pyridin-2-yl)-1H-1,2,4-triazole-3,5-diamine]	0 (A score of 0 means that the compound inhibited CXCL1 mRNA by less than 50% (non-significant inhibition))
Nc1nc(Nc2ccc(Cl)cc2)nn1Cc1cccc(Br)c1 [MCK344, 1-(3-bromobenzyl)-N^3-(4-chlorophenyl)-1H-1,2,4-triazole-3,5-diamine]	1 (A score of 1 means that the compound inhibited CXCL1 mRNA by at least 50% (significant inhibition))
Nc1nc(Nc2ccc(Br)cc2)n(Cc2cccc(Br)c2)n1 [MCK345, 1-(3-bromobenzyl)-N^5-(4-bromophenyl)-1H-1,2,4-triazole-3,5-diamine]	1 (A score of 1 means that the compound inhibited CXCL1 mRNA by at least 50% (significant inhibition))
Nc1nc(Nc2ccccc2)n(Cc2c(F)cccc2F)n1 [MCK257, 1-(2,6-difluorobenzyl)-N^5-phenyl-1H-1,2,4-triazole-3,5-diamine]	1 (A score of 1 means that the compound inhibited CXCL1 mRNA by at least 50% (significant inhibition))
CC(C)c1ccc(Cn2nc(Nc3ccc(Cl)c(Cl)c3)nc2N)cc1 [MCK350, N^3-(3,4-dichlorophenyl)-1-(4-isopropylbenzyl)-1H-1,2,4-triazole-3,5-diamine]	1 (A score of 1 means that the compound inhibited CXCL1 mRNA by at least 50% (significant inhibition))
Nc1nc(Nc2ccccc2)nn1CC(=O)c1ccccc1 [MCK299, 2-(5-amino-3-(phenylamino)-1H-1,2,4-triazol-1-yl)-1-phenylethan-1-one]	0 (A score of 0 means that the compound inhibited CXCL1 mRNA by less than 50% (non-significant inhibition))

Source: patent US20260284014A1, “3,5-DIAMINOTRIAZOLE DERIVATIVES AND USES THEREOF FOR TREATING OCULAR DISEASES” (CENTRE NATIONAL DE LA RECHERCHE SCIENTIFIQUE, priority 2023, published 2026)
